Experimental data taken from PubChem BioAssay AID1508624 (National Center for Advancing Translational Sciences (NCATS), 2021).
Values joined by “and” are separate entries in the source; they are usually repeats but may differ in a detail not shown here. Identical values can stand only once. In all, about 48,000 compounds went through this assay and about 120 (0.25%) were called active. Another 4% or so got no clear call; they are omitted. Calls follow the shape of the dose curve; as a rule, active = well fitted activation curve with a large enough effect; inconclusive = small, poorly fitted or top-dose-only effect, or another doubt; inactive = no such curve, though single readings can be large or run the other way. This is one part of the list.

assay: Primary qHTS for Identification of Small Molecule Activators of Huntingtin-Antisense Promoter Activity; conditions: HEK293 HTT-AS promoter firefly luciferase reporter, 24 h; at 57.5 µM (top of the series) unless noted; also: nearly all actives have a fitted effect of over 55% in size
How it was run: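 Luminescence was read after Dual-Glo reagent and a 10 min room-temperature incubation. Values were normalized to vehicle (0% activity) and zero RLU (-100% activity). Reporter HEK293 cells had been exposed to compounds (up to 57.5 uM final) for 24 h.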

SMILES | activity change, positive = activation
CC(=O)[C@H]1CC[C@H]2[C@@H]3CC[C@H]4C[C@](C)(O)CC[C@]4(C)[C@H]3CC[C@]12C | inactive: -0.771%
CN1CCN(c2csc3ccc(F)cc3c2=O)CC1 | inactive: 10.1% [at 57.5 µM, percent change from vehicle, -100% = no light]
CN(C)CCc1ccc(O)cc1 | inactive: -10.4% and inactive: -9.26%
CCOC(=O)C1(c2ccccc2)CCN(CCC(C#N)(c2ccccc2)c2ccccc2)CC1 | inactive: -38.1%
NC1=NC(=O)C(c2ccccc2)O1 (stereo not given) | inactive: -3.04%
CCOc1ccc(-n2c(/C=C/c3ccccc3)nc3ccccc3c2=O)cc1 | inactive: -10.1% [at 57.5 µM, percent change from vehicle, -100% = no light]
N#Cc1cc2c(nc1SCC(=O)Nc1cccc(F)c1)C1CCN2CC1 | inactive: -39.4% [at 57.5 µM, percent change from vehicle, -100% = no light]
C[C@]12CC[C@H]3[C@@H](CCC4=CC(=O)CC[C@@]43C)[C@H]1CC[C@H]2O | inactive: -16%
COC1=C[C@@H]2[C@@H]3Cc4ccc(OC)c(O)c4[C@]2(CCN3C)CC1=O | inactive: -59.3%
COc1ccc(N(C(=O)Oc2c(C)cccc2C)c2ccnc(Nc3ccc(N4CCN(C)CC4)cc3)n2)c(OC)c1 | inactive: -37.1%
Cc1ccc(NC(=O)N(Cc2ccc3c(c2)OCO3)C2CCN(Cc3ccccc3)CC2)cc1F | inactive: -19.7%
O=C(Nc1ccc(Br)cc1)c1cc(Br)cc(Br)c1O | inactive: 11.2%
c1ccc2c(CN3CCNCC3)cccc2c1 | inactive: -9.95%
C#CCN(C)[C@H](C)Cc1ccccc1 | inactive: -14.6% and inactive: -1.58%
Cc1cc(C)cc(-n2c(/C=C/c3cccc(F)c3)nc3ccccc3c2=O)c1 | inactive: -35.6%
CC1COC2(c3ccccc3Cl)c3cc(Cl)ccc3NC(=O)CN12 (stereo not given) | inactive: -14.6%
COc1ccc(NC(=O)CN2C(=O)C(C)N=C(c3ccccc3F)c3cc(Cl)ccc32)c(OC)c1 (stereo not given) | inactive: -25.7% [at 57.5 µM, percent change from vehicle, -100% = no light]
CC(C)NCC(O)c1ccccc1Cl (stereo not given) | inactive: -5.98%
Cc1nnc(NC(=O)c2cccn(Cc3ccc(Cl)cc3)c2=O)s1 | inactive: -9.06%
O=C(Nc1ccccc1-c1ccc(Cl)cc1)c1cccnc1Cl | inactive: -14.5% [at 116 µM]
CCN1C[C@]2(OC(=O)c3ccccc3NC(C)=O)CC[C@H](OC)[C@@]34[C@H]5CC6[C@@H](OC)C[C@](O)(C(C[C@@H]23)[C@@H]14)[C@@]5(O)[C@@H]6OC | inactive: -27.4%
COc1ccc2c(C(=O)c3ccc(Cl)cc3)c(C)n(CC(=O)O)c2c1 | inactive: -8.91%
CCC(C(N)=O)N1CCCC1=O (stereo not given) | inactive: -7.16%
CC(=O)[O][Hg][c]1ccccc1 | inactive: -95.6%
Cc1ccc(-n2c(/C=C/c3ccc(Br)s3)nc3ccccc3c2=O)cc1C | inactive: -29.1%

SMILES | activity change, positive = activation
ClC1=C(Cl)C2(Cl)C(CBr)CC1(Cl)C2(Cl)Cl (stereo not given) | inactive: -6.53% [at 57.5 µM, percent change from vehicle, -100% = no light]
O=c1[nH]c2ccccc2n1C1CCN(CCCC(c2ccc(F)cc2)c2ccc(F)cc2)CC1 | inactive: -38.3%
CCN(CCO)CCn1c(Cc2ccccc2)nc2c1c(=O)n(C)c(=O)n2C | inactive: -2.35%
COc1ccc(OC)c(NC(=O)Cn2cc(C(=O)c3ccccc3F)c3ccccc32)c1 | inactive: -34.6%
CC(=O)Nc1cc([As](=O)(O)O)ccc1O | inactive: 2.59%
C=CCOC(Cn1ccnc1)c1ccc(Cl)cc1Cl (stereo not given) | inactive: -26.4%
C=CCN1CC[C@]23CCCC[C@H]2[C@H]1Cc1ccc(O)cc13 | inactive: -10.5%
FC(F)(F)c1cccc(C2=CCN(CCc3ccc4ccccc4c3)CC2)c1 | inactive: -7.69%
Nc1ccc([As](=O)(O)O)cc1 | inactive: -2.5%
O=C(COc1ccc(Cl)cc1)Nc1ccc(Cl)cc1C(=O)c1ccccc1 | inactive: -3.77% [at 57.5 µM, percent change from vehicle, -100% = no light]
Cc1c(C(c2ccc(F)cc2)c2c(O)c3ccccc3oc2=O)c(=O)n(-c2ccccc2)n1C (stereo not given) | inactive: -26.6%
CCOP(=O)(NC(C)C)Oc1ccc(SC)c(C)c1 (stereo not given) | inactive: 0.43% [at 116 µM]
O=C1CC(c2c(F)cccc2Cl)c2c(c3ccccc3oc2=O)O1 (stereo not given) | inactive: 3.72% [at 57.5 µM, percent change from vehicle, -100% = no light]
O=c1[nH]c2ccc(Cl)cc2c(N[C@@H]2CN3CCC2CC3)c1-c1nc2ccccc2[nH]1 | inactive: -13.6%
S=C(SSC(=S)N1CCCCC1)N1CCCCC1 | inactive: -12.3%
CC1OC(C)OC(C)O1 (stereo not given) | inactive: -2.01%
Cc1nnc(NC(=O)c2cccn(Cc3ccccc3F)c2=O)s1 | inactive: 16.1% [at 57.5 µM, percent change from vehicle, -100% = no light]
O=S(=O)(O)C(F)(F)C(F)(F)C(F)(F)C(F)(F)F | inactive: -4.97% [at 116 µM]
CC(=O)N1CC(=O)Nc2ccc(F)cc2C1c1ccccc1 (stereo not given) | inactive: 1.46%
CCC12CN3CC(CC)(CN(C1)C3c1ccccn1)C2=O (stereo not given) | inactive: 0.831%
CCCCCCCCC(=O)NCc1ccc(O)c(OC)c1 | inactive: -8.92%
CCCSc1nc2ccccc2c(=O)n1-c1ccccc1OC | inactive: -31.9%
COP(=S)(OC)Oc1cc(Cl)c(Cl)cc1Cl | inactive: -2.14%
Cc1cc(C)cc(-n2c(=O)[nH]c3ccccc3c2=O)c1 | inactive: 18.2% [at 57.5 µM, percent change from vehicle, -100% = no light]
O=C(O)c1ccc(=O)[nH]c1 | inactive: -1.68%
